PubChem BioAssay AID1479 (National Center for Advancing Translational Sciences (NCATS), 2009)
In all, about 280,000 compounds went through this assay and about 820 (0.29%) were called active. The inconclusive results got no clear call from the source; some entries with a clear call stand among them for comparison. The call rests on the fitted dose curve; in most records, active means well fitted curve in either direction with a large enough effect; inconclusive means small, poorly fitted or top-dose-only effect; inactive means flat fitted curve, though single readings scatter. No potency is given beside an inconclusive call; the fits are too rough.

assay: Total Fluorescence Counterscreen for Inhibitors of the Interaction of Thyroid Hormone Receptor and Steroid Receptor Coregulator 2; conditions: TRb/SRC2 Texas Red total fluorescence interference; series mostly up to 106 µM
Outline: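 Human TRb ligand-binding domain at 0.6 uM with 20 nM Texas Red SRC2 peptide in Tris buffer containing 1 uM T3 and 5% DMSO, incubated with compound 5 h at ambient temperature. Total fluorescence (555/632 nm) calculated as parallel + 2 × perpendicular.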
On the % scale 0 is the no-effect control and ±100 the full control effect; potency means the concentration at half of the fitted maximal effect; tags describe the fitted curve by direction and shape or compound fluorescence and quenching.

SMILES	Potency	fluorescence change, negative = quenching
Cc1c(NC(=O)c2cc(-c3ccc(Cl)cc3)on2)c(=O)n(-c2ccccc2)n1C	inconclusive [falling, partial curve, poor fit]	
Oc1c(CN2CCc3ccccc3C2)cc(Cl)c2cccnc12	inactive	
COC(=O)/C(=N/Nc1ccccc1Cl)Sc1nnc(C(O)c2ccccc2)n1-c1ccccc1 (stereo unspecified)	active: 35.5 µM [quencher]	
Cc1ccc2nc(-c3ccc(NS(=O)(=O)c4ccc(F)c(F)c4)cc3)sc2c1	inactive	
Cc1c(NC(=O)c2cc(-c3cccc(O)c3)on2)c(=O)n(-c2ccccc2)n1C	inconclusive [quencher, full curve]	
CC1CCc2c(sc(NC(=O)C3c4ccccc4Oc4ccccc43)c2C(N)=O)C1 (stereo unspecified)	inconclusive [falling, full curve, poor fit]	
O=C(CSc1ncn[nH]1)c1cccc([N+](=O)[O-])c1	inactive	
COc1cccc(C2=Nn3c(nnc3-c3cccc(OC)c3)SC2)c1	inactive	
O=C(N/N=C/c1ccc(O)cc1)c1cccc(N/N=C/c2ccc(O)cc2)c1	inactive	
CCOCCCNc1nc2c(C)cccn2c(=O)c1/C=C1\SC(=S)N(C(C)CC)C1=O (stereo unspecified)	inactive	
COc1ccc(CN(C(=O)Nc2cccc(Cl)c2)c2ccccn2)cc1OC	inconclusive [falling, partial curve, poor fit]	
CN(C)C=NC(=O)c1cc2c(n(-c3ccccc3)c1=O)CC(C)(C)CC2=O	inconclusive [quencher]	
CCCSc1nnc(Sc2nnnn2-c2ccccc2)s1	inactive	
Cc1ccc(-c2[nH]c3ccccc3c2SCCNC(=O)c2ccc(S(=O)(=O)N(C)C)cc2)cc1	inactive	
CCCCn1c2ccccc2c2nnc(SCC(=O)Nc3ccc(NC(C)=O)cc3)nc21	inactive	
Cc1ccc(NS(=O)(=O)c2cccc3nsnc23)cc1	inactive	
Cc1ccc(-c2nn(-c3ccccc3)cc2/C=C2\SC(=S)N(CC(=O)O)C2=O)cc1	inactive	
CCOC(=O)N1CCN(c2cc(C)nc3nc(C)nn23)CC1	inactive	
O=C1c2ccccc2C(=O)c2c([N+](=O)[O-])ccc(O)c21	inactive	
CCOc1ccc(NC(=O)c2c(NC(=O)Cc3ccccc3)sc3c2CCCC3)cc1	inconclusive [quencher, full curve]	
O=C(CSc1ncc(S(=O)(=O)c2ccc(Cl)cc2)c(=O)[nH]1)Nc1ccc2c(c1)OCCO2	inconclusive [falling, full curve, poor fit]	
CCCc1cc(=O)n2[nH]c(NCc3ccc(CC)cc3)nc2n1	inconclusive [falling, partial curve, poor fit]	
O=C(CSc1nnc(-c2ccc(Cl)cc2)o1)N1CCc2ccccc21	inactive	
O=C1[C@H]2[C@H]3[C@H](O)[C@H](O)C/C(=N/OC[C@@H](O)COCc4ccco4)[C@H]3CC[C@@H]2C(=O)N1Cc1ccc2c(c1)OCO2		inactive: -0.678% [at 11.2 µM]

SMILES	Potency	fluorescence change, negative = quenching
CSc1nc(Cl)cc(N2CCOCC2)n1	inactive	
O=C(Nc1cc2c(cc1C(=O)c1ccccc1Cl)OCCO2)c1ccccc1	active: 0.0891 µM [quencher]	
CCOC(=O)c1cccc(Nc2cc(-c3ccccc3)ncn2)c1	active: 0.316 µM [quencher]	
Oc1ccc(NCc2ccccc2OCc2ccccc2F)cc1	inactive	
CC(=O)c1ccc(NC(=O)CCCSc2nc(-c3ccco3)cc(C(F)(F)F)n2)cc1	inconclusive [falling, full curve, poor fit]	
COc1cccc(NC(=O)C2=C(C)C(=O)OC23CCN(C(C)=O)CC3)c1	inconclusive [quencher, full curve]	
COc1ccc(OC)c(-c2csc(NC(=O)c3ccc(OCC4CCCO4)cc3)n2)c1 (stereo unspecified)	inconclusive [falling, partial curve, poor fit]	
Cc1cc(C)nc(NS(=O)(=O)c2ccc(NC(=O)c3ccc(S(=O)(=O)N4CC(C)OC(C)C4)cc3)cc2)n1 (stereo unspecified)	inconclusive [falling, full curve, poor fit]	
CCS(=O)(=O)n1nc(-c2ccco2)nc1SC	inactive	
O=C(O)CCCNc1cc(N2CCN(C3CCCCC3)CC2)c2noc3c2c1C(=O)c1ccccc1-3	active: 39.8 µM [fluorescent]	
CCCS(=O)(=O)N1CC(=O)N(c2cc(C)ccc2C)C(C)(C(=O)NC2CCCCCC2)C1 (stereo unspecified)	active: 25.1 µM [quencher]	
N#CC1=C(N)N(c2cccc(Cl)c2)C2=C(C(=O)CCC2)C1c1cc(CN2CCOCC2)cs1 (stereo unspecified)	inconclusive [quencher, full curve]	
Cc1cc(C(=O)N/N=C/c2ccc(Cl)c([N+](=O)[O-])c2)c(C)n1-c1ccc(F)cc1	inactive	
Cc1nn2c(C)c(C(=O)NC(C)(C)C)cnc2c1-c1ccc(F)cc1	inconclusive [falling, full curve, poor fit]	
Cc1cc(C)c2c(c1)c(C)cc1nnc(SCc3ccccc3C#N)n12	inconclusive [falling, full curve, poor fit]	
Cc1c(Cl)cccc1NC(=O)CCOc1ccccc1	inconclusive [falling, partial curve, poor fit]	
CCOc1ccc(Nc2c(S(=O)(=O)c3ccccc3)cnc3ccc(F)cc23)cc1	inconclusive [falling, full curve, poor fit]	
CCOc1ccc(-c2c(C)nn3c(C)c(C(=O)Nc4cc(C)cc(C)c4)cnc23)cc1OCC	inconclusive [falling, full curve, poor fit]	
CC(=O)OCCNc1cc(N2CCN(C)CC2)c2noc3c2c1C(=O)c1ccccc1-3	active: 50.1 µM [fluorescent]	
CCCN(CCC)C(=O)Cn1c(=O)n(CCCCCC(=O)NCc2ccccc2Cl)c(=O)c2sccc21	inconclusive [falling, full curve, poor fit]	
Cc1oc(-c2ccccc2)cc1C(=O)Nc1cccc(/C=C\C(=O)O)c1	inactive	
COc1cccc(Cn2c(CNS(=O)(=O)c3ccc(Cl)s3)nc3cccnc32)c1	inconclusive [quencher, partial curve]	
CCC(C)NC(=O)Cn1c(=O)n(Cc2ccc(C(=O)NCc3ccc(C)cc3)cc2)c(=O)c2ccccc21 (stereo unspecified)	inactive	
COCCCn1c(N)c(-c2nc3ccccc3n2C)c2nc3ccccc3nc21	inactive	

SMILES	Potency	fluorescence change, negative = quenching
O=C(O)C1Cc2ccccc2CN1C(=O)c1ccccc1 (stereo unspecified)	inactive	
O=C(NC1CCCCC1)c1ccc2c(c1)N(Cc1ccccc1Cl)C(=O)c1ccccc1S2	inconclusive [quencher, partial curve]	
COc1cccc2c1cc1c(=O)n(CC(=O)NCc3ccco3)nc(C)n12	inconclusive [quencher, full curve]	
CCCC1=NN2C(=N)/C(=C\c3ccc(SCc4ccco4)o3)C(=O)N=C2S1	active: 50.1 µM [fluorescent]	
CCCCC#CC1C=CC(OC(C)=O)C(COC(C)=O)O1 (stereo unspecified)	inconclusive [quencher, full curve]	
Cc1ccc(NC(=O)CSc2nnc(-c3n[nH]c4ccccc34)n2-c2ccccc2)c(C)c1	inconclusive [falling, full curve, poor fit]	
COc1ccc(-c2[nH]ncc2-c2ccc(Cl)cc2)c(O)c1	inactive	
NS(=O)(=O)c1cc2c(cc1Cl)NCNS2(=O)=O	inconclusive [falling, full curve, poor fit]	
CCCCCNC(=O)C1CCC(Cn2c(=O)c3sccc3n(CC(=O)NCc3cccc(OC)c3OC)c2=O)CC1 (stereo unspecified)	inconclusive [falling, partial curve, poor fit]	
CCn1c(=O)c(C(=O)Nc2ccsc2C(=O)OC)c(O)c2ccccc21	inconclusive [falling, full curve, poor fit]	
CC(C)Cn1c([N+](=O)[O-])nc2c1c(=O)[nH]c(=O)n2C	inactive	
COc1ccc(OCC(O)CN(CCO)CC(O)Cn2ccc3ccccc32)cc1 (stereo unspecified)	inactive	
Cc1cc(C)c(/C=C/c2onc(C)c2S(=O)(=O)N2CCC(C(=O)Nc3cccc(C)c3C)CC2)c(C)c1	inconclusive [quencher, partial curve]	
COc1cccc2c1C(=O)c1c(O)c3c(c(O)c1C2=O)C[C@@](O)(C(=O)CO)C[C@@H]3O[C@@H]1C[C@H](N)[C@H](O)[C@H](C)O1	active: 44.7 µM [fluorescent]	
CCOC(=O)c1c(C)oc2nc(C)nc(NCC3CCN(Cc4ccc(F)cc4)CC3)c12	inconclusive [falling, partial curve, poor fit]	
C=CCOCC1CN2C(CCC(C)C2c2ccc(Br)cc2)C(=O)O1 (stereo unspecified)		inactive: -1.61% [at 11.2 µM]
Cc1ccc(/C=C/C(=O)c2c(C)cc(C)[nH]c2=O)cc1	inactive	
O=C(NCCn1cc(SCc2ccccc2)c2ccccc21)c1cccs1	inconclusive [quencher, full curve]	
COc1ccccc1CNC(=O)CCCCn1c(=O)c2ccccc2n(Cc2ccccc2C)c1=O	inconclusive [quencher, full curve]	
CCC(C)NC(=O)c1ccc2c(c1)nc1n2CCCCC1 (stereo unspecified)	inactive	
CC[C@@H](C)C(N)C(=O)O (stereo partly specified)	inactive	
CC1(C)CC(=O)c2cc(-c3nc(-c4ccc(F)cc4)cs3)c(=O)[nH]c2C1	inactive	
CC(=O)Nc1ccc(S(=O)(=O)NCC2CCC(C(=O)NCCc3ccc(C)cc3)CC2)cc1 (stereo unspecified)	inconclusive [falling, full curve, poor fit]	
